Results taken from the supplement of paper PMC11417369.
The other results are listed elsewhere or left out.

The sequences below were run on PfSIP2 AP2 domain 1 (GST-tagged) (assay: gcPBM binding intensity (ln(normalized median fluorescence intensity)); higher = stronger DNA binding).
How it was run: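 An Agilent 4 × 180k array of primer-extended double-stranded 36-bp intergenic genomic probes, with negative controls, was incubated for 1 h with GST-tagged P. falciparum DNA-binding domains expressed in E. coli. Alexa488 anti-GST antibody detected bound protein, scanned at 488 nm. Binding intensity is the highest Masliner-normalised natural-log median intensity across replicate spots of either probe orientation.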

Sequence	gcPBM binding intensity (ln)
AACAAATTAATTCTAGTGCAGGACGTATTTGTGTAC [GTGCAC_site9907]	7.36
AAAAAAAAAAAAAAATGTACATATATAATATTTATA [XGTACX_site5117]	7.32
TACAAAATGTTATATCAATATAGATAAAAAAATGAA [XGTACX_negctrl_site285]	7.29
TTTTTATTTTTTGAAACACACACAAAAAAAATGATA [CACACA_site8564]	7.01
AAACAAATATATATATGTACTTATAAAAAAAAAAAT [XGTACX_site2211]	7.12
TAAGGATATATATATTCACACACACCGGGAAATATA [CACACA_site8020]	6.81
CATTTTTTGCTTTCAACACACATACAATATATATAA [CACACA_site6127]	7.26
AAGGATCACGCACAAACACACATATTTATATTTATA [CACACA_site6405]	6.98
CTTTATTTTTTATACACACACAATATGTATATATAT [CACACA_site3550]	7.59
TATATATGGAAAAGAGTCAAAAAGAAAAAAGAAAAA [CACACA_negctrl_site1374]	6.94
TATGAAATATTTATACACAGAACTTCATAATTTTCA [TGCATGCA_negctrl_site509]	6.79
TTTTTGTATTCTTCTTCTTCCAGACTACATTATGTC [XGTACX_negctrl_site235]	6.81
ATATATTTAAAATTGACACACATTTAATGACATTTT [CACACA_site3112]	6.96
TTTTTTTTTTTTTTTACACACATTTGAATAACTTTA [CACACA_site6810]	6.95
TATATGGGATATATGTGTACATATAAAATATGTATC [XGTACX_site3365]	7.14
CTTAATATGAATAAAACACACATATATAATTTGTAA [CACACA_site5120]	6.96
AAAAGAATTAAAAAATGTACATATAATATATATATA [XGTACX_site6721]	8.62
AAAAAAGAAGACATCTAAGTAATAGTAACAATGTAT [CACACA_negctrl_site1660]	6.98
GACATATTATTCATGTGTACATATTATATGTATATA [XGTACX_site3442]	7.13
AAGAATTTAGAAGGCATGCACTTAAACATGCATATA	9.26
TATAAATATACACCCACACACATATATAAATAAATA [CACACA_site7717]	7.25
CATATAATAAATAATACACACATATTGTAAATATAT [CACACA_site5734]	6.94
GTAATGAACAAACACAAAAAAAAAAAAAAAATAATA [TGCATGCA_negctrl_site344]	6.91
AATTGAGTATCGTGAGTGCAAAACGTGGTTCAAAGA	8.56
